In PMC5398727, “GP73 represses host innate immune response to promote virus replication by facilitating MAVS and TRAF6 degradation” (PLoS Pathogens, 2017) one finds binding data, which are given here for 4 molecules.

Sequences of proteins named here, by UniProt entry; tags and fusion partners are left off.
UniProt Q7Z434: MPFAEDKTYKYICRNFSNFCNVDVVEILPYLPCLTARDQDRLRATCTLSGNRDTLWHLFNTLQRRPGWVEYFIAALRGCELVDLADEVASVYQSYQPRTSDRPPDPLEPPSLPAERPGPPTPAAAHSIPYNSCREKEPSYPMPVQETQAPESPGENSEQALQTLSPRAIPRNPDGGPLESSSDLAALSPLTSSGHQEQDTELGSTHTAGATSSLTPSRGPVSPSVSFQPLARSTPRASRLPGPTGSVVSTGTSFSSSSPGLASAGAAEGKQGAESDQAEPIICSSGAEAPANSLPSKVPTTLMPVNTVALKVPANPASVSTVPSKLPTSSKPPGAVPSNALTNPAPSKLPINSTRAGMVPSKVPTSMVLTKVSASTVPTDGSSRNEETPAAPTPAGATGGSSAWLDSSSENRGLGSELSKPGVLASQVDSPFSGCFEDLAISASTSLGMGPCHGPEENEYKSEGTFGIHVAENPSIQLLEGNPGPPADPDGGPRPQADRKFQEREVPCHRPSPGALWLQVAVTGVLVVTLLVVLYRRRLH

Results are given in words; binding and its absence hold for the method and conditions named. In cells and extracts the contact can be indirect. Some binding calls cover weakened binding; strength is not graded here. For some of these results: Sequences can lack the tags named with a protein.

One test has as its target T1, GST-GP73 (aa36-401) (human, UniProt Q8NBJ4 36-401).
T1 construct: also called recombinant GST-GP73; GST-fused GP73; source: E. coli BL21, purified (glutathione Sepharose 4B)
T1 sequence (looked up): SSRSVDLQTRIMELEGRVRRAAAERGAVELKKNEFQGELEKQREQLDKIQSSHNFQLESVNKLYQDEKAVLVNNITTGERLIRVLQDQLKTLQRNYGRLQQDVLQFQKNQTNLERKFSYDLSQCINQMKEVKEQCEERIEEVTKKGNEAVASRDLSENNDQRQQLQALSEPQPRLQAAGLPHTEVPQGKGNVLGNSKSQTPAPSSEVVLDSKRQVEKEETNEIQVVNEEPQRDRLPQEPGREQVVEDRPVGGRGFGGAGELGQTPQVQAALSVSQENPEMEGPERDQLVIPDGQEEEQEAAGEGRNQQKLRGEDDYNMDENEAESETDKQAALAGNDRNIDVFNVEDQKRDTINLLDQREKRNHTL
Nature of the test: pull-down; lysates of HEK293 transfected with Flag-MAVS or Flag-TRAF6 (20 mM Tris-Cl, 200 mM NaCl, 1 mM EDTA, 0.5% NP-40, pH 7.5) with 10 μg purified GST or 20 μg GST-GP73 on glutathione Sepharose overnight at 4°C; WB (Fig 3F); only the target purified.

A further test concerns the target T2, TRAF6-aa 358–522 (UniProt Q9Y4K3).
T2 sequence: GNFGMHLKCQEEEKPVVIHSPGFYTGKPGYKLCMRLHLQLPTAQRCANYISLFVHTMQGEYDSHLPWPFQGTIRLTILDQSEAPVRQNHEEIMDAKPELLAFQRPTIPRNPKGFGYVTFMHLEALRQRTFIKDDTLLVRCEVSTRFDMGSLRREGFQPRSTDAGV
Nature of the test: co-IP; HEK293 co-transfected with GP73 (1 μg) and TRAF6 or its deletion mutants (3 μg) for 24 h; immunoprecipitation and WB with indicated antibodies (Fig 4A).

Another test addresses T3, TRAF6-aa 1–288 (UniProt Q9Y4K3).
T3 sequence: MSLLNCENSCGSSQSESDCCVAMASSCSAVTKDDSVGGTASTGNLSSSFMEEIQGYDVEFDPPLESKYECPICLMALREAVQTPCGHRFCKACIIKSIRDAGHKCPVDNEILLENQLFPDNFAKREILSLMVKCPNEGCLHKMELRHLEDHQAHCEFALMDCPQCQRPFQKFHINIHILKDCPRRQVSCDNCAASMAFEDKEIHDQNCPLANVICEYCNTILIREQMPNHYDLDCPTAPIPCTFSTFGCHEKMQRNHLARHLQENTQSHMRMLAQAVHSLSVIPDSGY
The test is described as above.

A further test addresses T4, TRAF6-aa 289–522 (UniProt Q9Y4K3).
T4 sequence: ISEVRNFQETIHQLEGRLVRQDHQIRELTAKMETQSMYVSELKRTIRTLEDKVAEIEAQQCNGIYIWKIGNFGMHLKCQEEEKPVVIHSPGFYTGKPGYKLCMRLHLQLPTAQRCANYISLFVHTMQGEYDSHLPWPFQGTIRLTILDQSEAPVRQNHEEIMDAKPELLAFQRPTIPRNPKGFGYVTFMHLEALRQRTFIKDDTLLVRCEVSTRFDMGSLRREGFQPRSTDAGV
The description is as above.

The next test deals with T5, TRAF6-aa 1–357 (UniProt Q9Y4K3).
T5 sequence: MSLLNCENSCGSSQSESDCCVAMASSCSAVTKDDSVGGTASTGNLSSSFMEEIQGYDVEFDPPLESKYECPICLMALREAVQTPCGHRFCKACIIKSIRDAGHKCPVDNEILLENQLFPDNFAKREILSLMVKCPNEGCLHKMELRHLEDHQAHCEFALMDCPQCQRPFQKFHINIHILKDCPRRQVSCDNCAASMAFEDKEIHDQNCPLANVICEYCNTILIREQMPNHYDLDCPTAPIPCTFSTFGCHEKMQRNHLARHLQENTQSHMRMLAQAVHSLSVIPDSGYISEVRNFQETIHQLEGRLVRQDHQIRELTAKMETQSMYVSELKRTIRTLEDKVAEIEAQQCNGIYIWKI
The description is as above.

The target in test [1] is Flag-MAVS (mitochondrial antiviral signaling protein), full length (UniProt Q7Z434). The experiment in a line: co-IP; HEK293 co-transfected with GP73 plasmid and Flag-tagged (or indicated) plasmids for 24 h; lysis in 50 mM Tris-HCl, 150 mM NaCl, 1% Triton X-100, 1 mM EDTA, 10% glycerol, pH 7.4; immunoprecipitated with anti-Flag (or IgG), washed with 300 mM NaCl buffer, WB; Fig 3B, 3C, 4C-F, S4B (for Fig 4C-F the antibodies are only 'indicated').

Test [2] deals with endogenous MAVS (HEK293) (human (endogenous in HEK293)) (UniProt Q7Z434). Nature of the test: co-IP; endogenous proteins, HEK293 cells infected with SeV for indicated times; immunoprecipitation and WB with antibodies against indicated proteins (Fig 3D).

As for “Flag-MAVS (mitochondrial antiviral signaling protein), full length (from UniProt Q7Z434 1-540)”, the binding entry with GST-GP73 (aa36-401) is recorded as “binds”.

B1: GP73 (plasmid of Fig 4A, tag not stated) (protein, UniProt Q8NBJ4 1-401)
chain: MMGLGNGRRSMKSPPLVLAALVACIIVLGFNYWIASSRSVDLQTRIMELEGRVRRAAAERGAVELKKNEFQGELEKQREQLDKIQSSHNFQLESVNKLYQDEKAVLVNNITTGERLIRVLQDQLKTLQRNYGRLQQDVLQFQKNQTNLERKFSYDLSQCINQMKEVKEQCEERIEEVTKKGNEAVASRDLSENNDQRQQLQALSEPQPRLQAAGLPHTEVPQGKGNVLGNSKSQTPAPSSEVVLDSKRQVEKEETNEIQVVNEEPQRDRLPQEPGREQVVEDRPVGGRGFGGAGELGQTPQVQAALSVSQENPEMEGPERDQLVIPDGQEEEQEAAGEGRNQQKLRGEDDYNMDENEAESETDKQAALAGNDRNIDVFNVEDQKRDTINLLDQREKRNHTL
In the case of B1, the binding entry with TRAF6-aa 358–522 is on record as “no binding”; with TRAF6-aa 1–288, “no binding”; with TRAF6-aa 289–522, “binds”; in the test with TRAF6-aa 1–357 it was “binds”.

B2: HA-GP73-Myc (protein, UniProt Q8NBJ4 1-401)
chain: MMGLGNGRRSMKSPPLVLAALVACIIVLGFNYWIASSRSVDLQTRIMELEGRVRRAAAERGAVELKKNEFQGELEKQREQLDKIQSSHNFQLESVNKLYQDEKAVLVNNITTGERLIRVLQDQLKTLQRNYGRLQQDVLQFQKNQTNLERKFSYDLSQCINQMKEVKEQCEERIEEVTKKGNEAVASRDLSENNDQRQQLQALSEPQPRLQAAGLPHTEVPQGKGNVLGNSKSQTPAPSSEVVLDSKRQVEKEETNEIQVVNEEPQRDRLPQEPGREQVVEDRPVGGRGFGGAGELGQTPQVQAALSVSQENPEMEGPERDQLVIPDGQEEEQEAAGEGRNQQKLRGEDDYNMDENEAESETDKQAALAGNDRNIDVFNVEDQKRDTINLLDQREKRNHTL
As to B2, in test [1], the binding entry was “binds”.

B3: endogenous GP73 (HEK293) (protein, UniProt Q8NBJ4 1-401)
chain: MMGLGNGRRSMKSPPLVLAALVACIIVLGFNYWIASSRSVDLQTRIMELEGRVRRAAAERGAVELKKNEFQGELEKQREQLDKIQSSHNFQLESVNKLYQDEKAVLVNNITTGERLIRVLQDQLKTLQRNYGRLQQDVLQFQKNQTNLERKFSYDLSQCINQMKEVKEQCEERIEEVTKKGNEAVASRDLSENNDQRQQLQALSEPQPRLQAAGLPHTEVPQGKGNVLGNSKSQTPAPSSEVVLDSKRQVEKEETNEIQVVNEEPQRDRLPQEPGREQVVEDRPVGGRGFGGAGELGQTPQVQAALSVSQENPEMEGPERDQLVIPDGQEEEQEAAGEGRNQQKLRGEDDYNMDENEAESETDKQAALAGNDRNIDVFNVEDQKRDTINLLDQREKRNHTL
Consider B3, for which the binding entry in test [2] is “binds”.
